# Laboratory results reported in the supplement of paper PMC9446081.
# Out of some 39,000 compounds screened, about 220 (0.56%) showed activity. This is one part of the list.
# System: Escherichia coli K-12 BW25113
# Test: relative growth (OD600 normalised to plate interquartile mean) (fraction); higher = less growth inhibition, active = 0.2 or less
# Conditions: 50 µM; LB; incubation time: overnight (16-24 h)
# 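Also: static incubation at 37 °C against the wild-type strain, values averaged over two biological replicates.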
row,SMILES,relative growth
1,CCCn1c(=O)[nH]c(=O)c2[nH]cnc21,inactive: 0.968
2,C[C@H](CO)N1C[C@H](C)[C@H](CN(C)S(=O)(=O)c2cccs2)OCCCC[C@H](C)Oc2ccc(NC(=O)Nc3ccccc3)cc2C1=O,inactive: 1.02
3,C[C@@H]1CCCCO[C@H](CN(C)C(=O)Cc2ccccc2)[C@H](C)CN([C@@H](C)CO)C(=O)c2cc(NC(=O)Nc3ccc(F)cc3)ccc2O1,inactive: 0.993
4,Cc1noc(C)c1S(=O)(=O)Nc1ccc2c(c1)C(=O)N([C@H](C)CO)C[C@@H](C)[C@@H](CN(C)S(=O)(=O)c1ccc(F)cc1)O2,inactive: 1.02
5,C[C@@H]1CN([C@@H](C)CO)C(=O)c2cc(-c3cccnc3)cnc2O[C@@H]1CN(C)Cc1ccc(Oc2ccccc2)cc1,inactive: 0.86
6,C[C@@H]1CN([C@@H](C)CO)C(=O)c2cccc(NC(=O)Nc3cccc4ccccc34)c2O[C@H]1CN(C)C(=O)Nc1ccccc1,inactive: 0.792
7,O=C(Nc1ccc2c(c1)[C@H]1C[C@@H](CC(=O)N3CCc4ccccc4C3)O[C@@H](CO)[C@H]1O2)C1CCOCC1,inactive: 0.992
8,C[C@@H]1CN([C@H](C)CO)C(=O)c2cc(NC(=O)Nc3cccc4ccccc34)ccc2O[C@@H]1CN(C)Cc1ccc2c(c1)OCO2,inactive: 0.993
9,C[C@@H]1CN([C@H](C)CO)C(=O)c2cccc(NC(=O)c3ccc(-c4nccs4)cc3)c2O[C@@H]1CN(C)Cc1ccc(Cl)c(Cl)c1,inactive: 1.01
10,CC=C1C2C=C(C)CC1(N)c1ccc(=O)[nH]c1C2 (configuration not stated),inactive: 0.949
11,Cc1noc(C)c1NC(=O)N(C)C[C@@H]1OCCCC[C@H](C)Oc2ccc(NC(=O)CCC(F)(F)F)cc2C(=O)N([C@H](C)CO)C[C@@H]1C,inactive: 0.979
12,O=C(O)c1ccc(-c2ccccc2)cc1,inactive: 0.922
13,C[C@@H]1CCCCO[C@H](CN(C)Cc2ccc(C(=O)O)cc2)[C@H](C)CN([C@H](C)CO)C(=O)c2cc(NC(=O)Cc3ccccc3)ccc2O1,inactive: 1
14,COC[C@@H]1CN(C)N=C(C2CC2)O1,inactive: 1.04
15,C[C@@H]1CCCCO[C@@H](CN(C)Cc2ccc3c(c2)OCO3)[C@H](C)CN([C@H](C)CO)C(=O)c2cc(NC(=O)Nc3ccc4c(c3)OCO4)ccc2O1,inactive: 1.01
16,COc1ccccc1-c1cccc(-c2nc(C(=O)NCc3ccncc3)cc3c2[C@@H](CCO)N([S@@](=O)C(C)(C)C)C3)c1,inactive: 1.01
17,C[C@@H]1CN([C@H](C)CO)C(=O)c2cccc(NC(=O)c3nc4ccccc4s3)c2O[C@@H]1CN(C)C(=O)Nc1cccc2ccccc12,inactive: 1
